Measurements taken from patent US20080311122A1, “Antagonists of Hmgb1 and/or Rage and Methods of Use Thereof” (Medimmune, LLC, priority 2005, published 2008).

Tests used:
[1] = test system: HMG1 (recombinant, native; immobilized, soluble); assay: Direct and sandwich (capture) ELISA comparing forms of HMG1; assay type: binding
Description: Direct ELISA (immobilized HMG1): Individual wells of a 96-well immunoplate (EIA/RIA plate, High binding, Costar) were coated with HMGB-1 at 5 μg/ml in PBS at 4° C. overnight. The plate was then blocked with 4% milk powder dissolved in PBS at 37° C. for 1 hour. The blocking solution was removed and replaced with human anti-HMG1 antibodies at various concentrations (see FIG. 4A). The plate was then washed (ELX-405 Plate washer, BIO-TEK) and secondary antibody (anti-human IgG-HRP, PIERCE) was added at a final concentration of 1:125,000 at 37° C. for 1 hour. HRP activity was detected with Sureblue HRP substrate (KPL). Plates were read at 450 nm using a Kinetic Microplate Reader (Molecular Devices).
Sandwich ELISA (soluble HMG1): Immunoplates (EIA/RIA plate, High binding, Costar) were coated with anti human IgG Fc at 10 μg/ml in PBS (pH 7.2) and incubated at 4° C. overnight. The coating reagent was removed and the plates were rinsed briefly with PBS. The plates were then blocked with 4% milk for 1 hour at 37° C. and rinsed with PBS. The anti-HMG1 antibodies were diluted in 4% milk. For serial dilutions, the antibodies were used at a starting concentration of 20 μg/ml. […] HRP activity was detected with Sureblue HRP substrate (KPL). Plates were read at 450 nm using a Kinetic Microplate Reader (Molecular Devices).

[2] = Differential scanning calorimetry; assay type: physicochemical; set-up: unit: °C; details: in °C (unit assumed)
Description: Differential Scanning Calorimetry: Thermal melting temperatures (Tm) were measured with a VP-DSC (MicroCal, LLC) using a scan rate of 1.0° C./min and a temperature range of 25-120° C. A filter period of 8 seconds was used along with a 5 minute pre-scan thermostating. Samples were prepared by dialysis into 25 mM Histidine-HCl, pH 6 using Pierce dialysis cups (3.5 kD). Average Mab concentrations were 50 μg/mL as determined by A280. Melting temperatures were determined following manufacturer procedures using Origin software supplied with the system. Briefly, multiple baselines were run with buffer in both the sample and reference cell to establish thermal equilibrium. After the baseline was subtracted from the sample thermogram, the data were concentration normalized and fitted using the deconvolution function.

HMG1 peptides [3] = molecular target: T1, HMG1 peptides (Homo sapiens, UniProt P09429); assay: HMG1 B Box and peptide mapping ELISA; assay type: binding; details: B Box peptide ELISA
T1 sequence (P09429 91-169 P98L): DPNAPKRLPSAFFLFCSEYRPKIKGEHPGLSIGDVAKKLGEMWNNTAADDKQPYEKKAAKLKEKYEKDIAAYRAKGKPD
Description: (§1) HMG1 B Box and Peptide Mapping: Individual wells of a 96-well immunoplate (EIA/RIA plate, High binding, Costar) were coated with HMG1 B Box peptide amino acids 91-169 (FIG. 5A) or amino acids 150-183 (FIG. 5B) at 10 μg/ml in PBS at 4° C. overnight. The plate was then blocked with 4% milk powder dissolved in PBS at 37° C. for 1 hour. The blocking solution was removed and replaced with human anti-HMG1 antibodies at various concentrations (see FIGS. 5A-B). The plate was then washed (ELX-405 Plate washer, BIO-TEK) and secondary antibody (anti-human IgG-HRP, PIERCE) was added at a final concentration of 1:125,000 at 37° C. for 1 hour. HRP activity was detected with Sureblue HRP substrate (KPL). Plates were read at 450 nm using a Kinetic Microplate Reader (Molecular Devices). To obtain more detailed peptide mapping information, similar ELISA assays were performed using 16 biotinylated overlapping peptides spanning the HMGB1 protein from amino acid 1 to 215 as follows, maxisorp microtiter plate was coated with 2 μg/ml of NeutroAvidin (Pierce) overnight at 4° C. After washing and blocking with 1% BSA in PBS, the biotinylated peptides were individually added into the avidin coated wells and incubated for 30 min at room temperature. […] Detection was accomplished by adding 50 μl of tetramethylbenzidine (TMB) substrate (KPL) and the absorbance was read at […]. […]

HMG1 peptides [4] = molecular target: T2, HMG1 peptides (Homo sapiens, UniProt P09429); assay: HMG1 B Box and peptide mapping ELISA; assay type: binding; details: B Box peptide ELISA; remark: listed apart in the source
T2 sequence (P09429 150-183): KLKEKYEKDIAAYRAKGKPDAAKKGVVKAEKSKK
Description: as §1

[5] = test system: mouse CLP model of sepsis; assay: Cecal ligation and puncture (CLP) model of sepsis; assay type: in vivo; details: percent protection, isotype control subtracted
Description: Anti-HMGB1 in Sepsis: To establish live intra-abdominal infection and sepsis, Balb/C mice (9-11 per group) were subjected to the CLP procedure as described previously (Fink and Heard, 1990, J Surg Res 49:186-196; Wichmann et al., 1996, J Surg Res 65, 109-114). After anesthesia with an intramuscular injection of ketamine (75 mg/kg, Fort Dodge Laboratories, Fort Dodge, Iowa) and xylazine (20 mg/kg, Bochringer Ingelheim), a 15-mm midline incision was made to expose the cecum. After ligation 5.0 mm from the tip, the cecal stump was punctured once with a 22-gauge needle, and small amount of stool (1-mm length) was extruded. The cecum was placed back into its normal intra-abdominal position, and the wound was closed with two layers of running suture. All animals received saline-solution (0.9% s.c., 20 ml/kg of body weight) resuscitation, and a single dose of antibiotic (0.5 mg of imipenem per mouse in 200 μl of sterile saline injected s.c.) (Primaxin, Merck) 30 min after surgery.
Anti-HMG1 antibodies or isotype control antibodies (50 μg/mouse in a 200 μl volume), were administered intraperitoneally at 24 and 48 hours, post surgery. In certain follow up experiments anti-HMG1 antibodies or isotype control antibodies (8 mg/kg) were administered intraperitoneally at 24 hours, post surgery (FIG. 11C-D). […] The survival of the mice was monitored twice daily for a total of 14 days. […]

B1: S2: human anti-HMG1 antibody, ATCC PTA-6142; VL/VH aa SEQ ID NO: 5/7 (antibody, listed as Homo sapiens, V domains shown)
VH: EVQLLESGGGLVQPGGSLRLSCAASGFTFSGYMMVWVRQAPGKGLEWVSRISPSGGQTGYADSVKGRFTISRDNSKNTLYLQMNSLRAEDTAVYYCAREEGGSYGAFDIWGQGTMVTVSS
VL: [gap - about 100 residues]FGQGTKVEIK
[1]
  binding to recombinant HMG1 versus native HMG1: better binding to rHMG1; also recorded: discriminating between recombinant and the various native forms; also recorded: bind better to recombinant HMG1 than to native nuclear HMG1
[2]
  Tm: 79.2
HMG1 peptides [3]
  binding to HMG1 peptide 91-169: do not bind either of the HMG1 B Box peptides
HMG1 peptides [4]
  binding to HMG1 peptide 150-183: do not bind either of the HMG1 B Box peptides
[5]
  in vivo CLP: 15%

“Also recorded” adds a separate entry of the source.
